# Laboratory results published in the supplement of paper PMC3334620.
# Whole data set: some 33,000 sequences, median “E-score (-0.5 to 0.5)” near -0.035, cut for the highest 2% near 0.35. This is one part of the list.
# Target: T1, Pdr3 (UniProt P33200)
# T1 sequence: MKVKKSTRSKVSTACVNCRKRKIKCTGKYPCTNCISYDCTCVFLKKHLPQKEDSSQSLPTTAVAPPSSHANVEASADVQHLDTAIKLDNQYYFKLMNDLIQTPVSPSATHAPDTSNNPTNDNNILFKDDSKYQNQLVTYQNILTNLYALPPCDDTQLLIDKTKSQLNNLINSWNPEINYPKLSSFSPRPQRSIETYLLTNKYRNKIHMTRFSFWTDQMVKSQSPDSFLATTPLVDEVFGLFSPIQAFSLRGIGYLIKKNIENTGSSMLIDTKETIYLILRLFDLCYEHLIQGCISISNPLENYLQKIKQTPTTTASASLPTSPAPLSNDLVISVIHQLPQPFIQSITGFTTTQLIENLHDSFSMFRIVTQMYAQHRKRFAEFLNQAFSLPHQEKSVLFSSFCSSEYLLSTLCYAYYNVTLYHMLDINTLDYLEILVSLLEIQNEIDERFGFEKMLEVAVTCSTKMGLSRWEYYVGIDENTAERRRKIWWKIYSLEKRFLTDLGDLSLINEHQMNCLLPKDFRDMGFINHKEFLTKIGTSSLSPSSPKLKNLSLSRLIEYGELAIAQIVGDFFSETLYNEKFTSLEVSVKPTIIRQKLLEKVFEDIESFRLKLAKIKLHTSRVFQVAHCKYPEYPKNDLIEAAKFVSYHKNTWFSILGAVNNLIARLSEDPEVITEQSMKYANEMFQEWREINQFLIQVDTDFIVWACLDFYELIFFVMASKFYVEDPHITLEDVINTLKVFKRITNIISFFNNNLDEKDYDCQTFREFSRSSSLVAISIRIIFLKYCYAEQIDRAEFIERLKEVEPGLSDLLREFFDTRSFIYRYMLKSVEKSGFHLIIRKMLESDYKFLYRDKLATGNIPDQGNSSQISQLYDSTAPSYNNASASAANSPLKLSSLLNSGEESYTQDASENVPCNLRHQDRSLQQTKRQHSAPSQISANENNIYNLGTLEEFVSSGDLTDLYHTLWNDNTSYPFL
# Experiment: PBM E-score (8-mer binding enrichment) (E-score (-0.5 to 0.5)); higher = stronger / more preferred TF binding; most listed sequences are background and not binding sites
# Details: protein concentration: 200 nM; construct: GST-full length
# Summary of the method: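 Using PURExpress in vitro transcription/translation, GST-tagged yeast transcription factors were made in full-length or DNA-binding-domain form. These were applied at about 100-200 nM to double-stranded universal all-10-mer Agilent arrays, and bound protein was detected with fluorescent anti-GST. Scans were normalised with masliner before the Universal PBM Analysis Suite assigned E-scores to ungapped eight-base words pooled with their reverse complements.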
row,Sequence,PBM E-score
1,CAGAGAGA,-0.158
2,ATAACTGG,0.00308
3,GAAGGAGA,-0.0949
4,AAATCCAA,-0.0251
5,ATGGAGGA,-0.0755
6,CTGAGCGA,0.0338
7,AGGGCGCA,-0.171
8,GAGGCCTA,-0.0661
9,CACGTATC,-0.0525
10,CAGGGTCA,-0.214
11,ACAATCCG,0.281
12,GGTAAAAC,-0.0483
13,GACGCAGA,0.0657
14,GAGTTAAA,-0.0808
15,GGAAGGAC,0.154
16,CATAGATG,-0.115
17,GGAGAGCA,-0.148
18,GAGGGCGC,-0.0611
19,ACCCACAC,0.0107
20,GGGCGCTA,-0.106
21,ATCCCAAG,0.0333
22,CGTCCAAG,0.0264

row,Sequence,PBM E-score
1,ATCTTATC,0.0533
2,TGTCTAAA,-0.161
3,CCTGGGTC,-0.137
4,AGTTGATG,-0.136
5,AAGTACAG,-0.302
6,ATCTGAAG,-0.174
7,AATCGTTC,-0.0216
8,AAATTGCT,-0.123
9,CGCAGCAA,-0.145
10,AGAGGCTC,-0.117
11,CATTAATG,-0.0586
12,CCACAGTA,-0.0843
13,ACGGGCAG,0.201
14,ATTTGTTA,0.0711
15,GAGATTAA,0.0377
16,CGAGCGGA,0.359
17,CAGTAATA,-0.068
18,CAATGCAC,-0.00477
19,GGGACTAC,0.0182
20,CTTGGTAC,-0.0971
21,AATATGCC,0.0396
22,CTTTTCAC,-0.0828

row,Sequence,PBM E-score
1,CTGATTAA,0.126
2,AAATTACC,-0.0477
3,AGAGTAGC,-0.228
4,GAGAAAAC,-0.0343
5,AAAAAAAT,0.115
6,TGGTAACA,-0.0779
7,GAAAACGA,-0.097
8,CTCAGAGC,-0.218
9,ATAACCGG,0.182
10,AGACTATG,-0.189
11,ATGAGTTC,0.0846
12,GTATTATA,0.2
13,AATATAGT,0.11
14,ATATGAAA,0.06
15,ATAATTGG,0.00159
16,TATCAGAA,0.0746
17,CTGCAGTC,-0.232
18,TCCGACCA,0.272
19,CAACACTA,0.00928
20,AACACATT,0.117
21,AGTTGTCG,0.0287
22,GAAATGGA,-0.0765

row,Sequence,PBM E-score
1,ACTATGCT,-0.08
2,AACTCGGG,0.184
3,AGATGTCG,0.167
4,ACCCGCGA,0.0513
5,CATGGTCG,-0.00458
6,GGCAACCC,0.0929
7,AGGCGGCA,-0.0661
8,CCTAAGAC,-0.316
9,GAGCAGAA,0.00292
10,CGCGCCTA,0.12
11,ACTTGGAT,0.0704
12,GGATAGGA,0.0524
13,TGAGTAAA,-0.168
14,ACAAGGCG,0.0405
15,TCGCGCAA,0.0429
16,TTAAATAA,0.0779
17,CGTGGAGC,0.169
18,CAGGAATG,-0.178
19,ATCCGTAA,0.281
20,ATGCATCC,0.0555
21,GAATCCTA,0.0163
22,CCTGCACA,-0.222

row,Sequence,PBM E-score
1,ATGCATAA,-0.218
2,CCCGGTAC,0.233
3,CTTGGTGC,-0.191
4,CATTCATA,0.173
5,ACCCTAAG,-0.11
6,AAAGCCTA,-0.325
7,TCTCTTCA,0.00694
8,ATGTGTTA,-0.168
9,CTCCCCAG,-0.162
10,TAGGTGAA,0.016
11,CTAGGGCA,-0.263
12,AGTCTCGC,-0.065
13,AACGGCAA,0.0283
14,GCGACCAA,0.177
15,CGCGTAAA,0.0173
16,GTAGGAAC,-0.07
17,GAATACCA,0.00976
18,AAAGGGGC,-0.135
19,AAGCCGGG,0.262
20,TCCCTACA,-0.0653
21,CGTTGTGA,-0.03
22,CCTCTCAC,-0.203
